Measurements published in PubChem BioAssay AID1346428 (National Center for Advancing Translational Sciences (NCATS), 2018).
Where “and” joins values, the source holds several entries; their conditions need not be identical. Identical values can stand only once. Hit rate of the full screen: of about 48,000 compounds, about 1,200 (2.5%) were called active. Roughly 2% stayed inconclusive and do not appear here.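 How the source made its calls: active means activation of at least 60% and not above a set upper limit (about 1 call in 100 departs from these limits); inconclusive means activation of 40% to 60%, or above that upper limit; inactive means activation under 40%.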 The list shows a part of the results.

target: Probable G-protein coupled receptor 32 (Homo sapiens) (UniProt O75388); assay: qHTS for Agonists of Human Resolvin D1 Receptor DRV1; details: CHO-K1 GPR32 beta-arrestin PathHunter luminescence, 90 min; at 76.9 µM; stronger effect = higher value; zero percent set by DMSO-only wells; further: 0% is about no effect
Method in brief: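 PathHunter beta-arrestin recruitment in CHO-K1 cells stably expressing ProLink-tagged GPR32. Cells were exposed to compound for 90 min at 37 C, then chemiluminescence was read after 1 h detection at ambient temperature; DMSO served as basal control.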

Chain of UniProt O75388 (O75388 whole entry, looked up): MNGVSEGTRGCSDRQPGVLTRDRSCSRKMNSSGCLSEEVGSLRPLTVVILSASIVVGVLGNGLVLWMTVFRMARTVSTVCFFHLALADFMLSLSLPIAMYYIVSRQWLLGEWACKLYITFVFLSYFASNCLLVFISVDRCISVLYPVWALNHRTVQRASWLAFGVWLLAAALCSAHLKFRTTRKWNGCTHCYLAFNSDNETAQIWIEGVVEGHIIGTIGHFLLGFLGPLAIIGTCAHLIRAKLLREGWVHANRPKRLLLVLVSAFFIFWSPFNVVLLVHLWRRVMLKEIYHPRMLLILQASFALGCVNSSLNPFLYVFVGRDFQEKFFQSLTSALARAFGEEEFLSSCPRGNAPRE

activation, inactive:
CCOc1ccc(Nc2oc(/C=C/c3cccc(OC)c3)nc2C#N)cc1 35.6%, CCCCCn1c(CCNC(=O)c2cccc(C)c2)nc2ccccc21 11.2%, Cc1ccc(-c2c(C(=O)NCCc3ccccc3)oc(=O)c3ccccc23)cc1 -31.9%, COc1ccc(-c2cc3ccc(O)c(CN4CCCC4)c3oc2=O)cc1 7.05%, CCCSc1nc(-c2ccccc2)[nH]c1S(=O)(=O)c1ccc(C)cc1 10.9%, COc1ccc(-c2n[nH]c3c2cnc2ccc(F)cc23)cc1 14.5%, CCn1cc(C(=O)NCCCOC)c(=O)c2cc(S(=O)(=O)N3CCc4ccccc4C3)ccc21 17.1%, Cc1cc(C)c2oc(-c3ccc(Cl)c(NC(=O)c4cccs4)c3)nc2c1 -7.75%, COc1ccc2c(c1)c1c(c(=O)n(Cc3ccccc3)c(=O)n1Cc1cccc(Cl)c1)n2C -37.7%, COc1ccccc1NC(=O)c1cnc(SCC(=O)N2CCOCC2)n(C)c1=O 0.397%, O=c1oc2ccc3ccccc3c2cc1-c1nnc(Nc2ccccc2F)s1 -6.98%, Cc1cc(C)cc(NC(=O)C2CCN(S(=O)(=O)c3cn(C)cn3)CC2)c1 -9.12%, CCOC(=O)C1CCCN(CC(=O)Nc2cc(C)c3c(=O)oc4ccccc4c3n2)C1 (stereo not drawn) -11.1%, CCc1cccc(C)c1NC(=O)Cn1nnc(-c2nc(-c3ccccc3F)no2)c1N 13.3%, Cc1cc2c(cc1NS(=O)(=O)c1cccc(C#N)c1)n(C)c(=O)c(=O)n2C 3.66%, Cc1ccc(=O)n(-c2ccccc2)c1 -10.9% and -5.64%, CCCOc1ccc(C2C(=O)N(C3CCC(C)CC3)CC(=O)N2Cc2cccc(OC)c2)cc1OC (stereo not drawn) -12.5%, CC1=Nc2cc(C(=O)N3CCC(C)CC3)ccc2Sc2ccc(Cl)cc21 18.9%, COc1ccc(NS(=O)(=O)c2cc3c(cc2C)N(C(C)=O)CCO3)cc1 2.64%, Cn1cc(S(=O)(=O)N2CCCCCC2)cc1C(=O)Nc1ccc(Cl)c(C(F)(F)F)c1 36.5%, O=C1c2ccccc2CCc2ccccc21 10.7%, CCc1ccc(NC(=O)C2CCCN2S(=O)(=O)c2ccc3c(c2)CCCC(=O)N3)cc1 (stereo not drawn) 6.73%, COc1ccc(CCNC(=O)c2ccc(Cn3c(=O)c4ccccc4n(Cc4cccc(F)c4)c3=O)cc2)cc1OC -0.102%, Cc1ccc(CNC(=O)c2ccc(Cn3c(=O)c4ccccc4n(CC(=O)Nc4c(C)cc(C)cc4C)c3=O)cc2)cc1 -10.8%, O=C(NCC(c1cccs1)S(=O)(=O)c1cccs1)c1cccc(F)c1 (stereo not drawn) 43.5%, COc1ccc(OC)c(-n2nnc(-c3nc(-c4cc(OC)c(OC)c(OC)c4)no3)c2C)c1 -3.77%, c1cnc(N2CCN(c3ncc4c(n3)CCNC4)CC2)nc1 6.76%, O=c1oc2c3c(ccc2c2ccccc12)OCN(Cc1ccc(Cl)cc1)C3 -62.5%, COc1ccc(-c2nc3ccccc3n3c(-c4ccccc4)c4c(=O)n(C)c(=O)n(C)c4c23)cc1OC 2.24%, COc1cc2c(cc1OC)C(COc1ccc3c(C)cc(=O)oc3c1)N(C(=O)c1ccccc1C)CC2 (stereo not drawn) -1.45%, COc1ccc(-n2nnnc2C2CCN(S(=O)(=O)c3ccc(C)cc3)CC2)cc1 -14.1%, COCCn1c(=O)[nH]c2cc(C(=O)N3CCN(c4ccccc4)CC3)ccc2c1=O 41.7%, CN1C(=O)c2ccccc2Sc2ccc(NC(=O)N3CCN(c4ccccc4)CC3)cc21 0.0031%, CC(=O)N1c2ccccc2C(C)(c2ccc(C)cc2)CC1(C)C (stereo not drawn) 42.8%, O=C(NCc1ccccc1)c1cccn1-c1nnc(N2CCCC2)s1 1.85%, CCOc1ccc(CNC(=O)c2nn(-c3ccc(OC)cc3)c(=O)c3c2c2ccccc2n3C)cc1 -10.7%, CC(=O)N1CCc2cc(S(=O)(=O)NC(Cc3ccccc3)C(=O)Nc3cc(C)ccc3C)ccc21 (stereo not drawn) -13.6%, Cc1ccc(-c2ccc(CCC(=O)O)n2-c2ccc(C(N)=O)cc2)cc1 -14.7%, CCOc1ccc(C(=O)Nc2ccc3nc(SCC(=O)N4CCc5ccccc54)sc3c2)cc1 -0.151%, CC1=C(c2ccc(C)cc2)S(=O)(=O)N(Cc2ccc(C(=O)Nc3ccc(C)c(F)c3)cc2)C1=O -6.58%, NC(=O)CSc1ncc2c(n1)-c1ccccc1N(Cc1ccc(F)cc1)S2(=O)=O 17.3%, O=C(NCCCN1CCCCCC1)c1ccc2c(c1)sc1nc(-c3ccccc3)cn12 -4.72%, COc1ccc(-c2nc(CS(=O)(=O)CC(=O)NCc3ccccc3Br)c(C)o2)cc1 -21.5%, Cc1ccc(CNC(=O)CCCn2c(=O)c3ccccc3n(CC(=O)Nc3ccc(C)cc3)c2=O)cc1 -3.32%, CCOc1ccc(NC(=O)CCc2c(C)nn(-c3ccc(N4CCCC4)nn3)c2C)cc1 -2.78%, CCC(C(=O)Nc1ccc(C)c(C)c1)n1c(=O)c(C(F)(F)F)nc2ccccc21 (stereo not drawn) -22.2%, Cc1nc2cc(-c3ccccc3)nn2c(C)c1CCC(=O)Nc1ccc(F)cc1F 27.2%, Cc1ccc(CNC(=O)CS(=O)(=O)c2cccc3nsnc23)cc1 2.22%, CCOC(=O)c1c(NC(=O)COc2ccc(Cl)cc2C)sc2c1CCCCC2 -0.0005%, COc1cccc(NC(=O)Cn2c(=O)n(CCC(=O)NCCc3ccc(Cl)cc3)c(=O)c3ccccc32)c1 -3.15%, COc1ccc(CCNC(=O)Cc2c(C)c3cc4c(C(C)(C)C)coc4c(C)c3oc2=O)cc1 -6.45%, COc1ccc(NC(=O)CC2C(=O)N(c3ccc(OC)cc3)C(=O)N2CCC2=CCCCC2)cc1 (stereo not drawn) -29.6%, Cc1ccc(C)c(Nc2cc(C(=O)NC3CCCC3)c3ccccc3n2)c1 0.529%, COc1cc(-c2noc(-c3ccc(NCC4CCCO4)c([N+](=O)[O-])c3)n2)cc(OC)c1OC (stereo not drawn) -31.6%, Cc1ccc(CNC(=O)c2cc3c(=O)n(Cc4ccco4)ccc3nc2C)cc1 -15%, COc1cc(NC(=O)CSc2nc3ncccc3o2)cc(OC)c1 -8.43%, Cl/C(=C\n1cncn1)c1ccc(Cl)cc1Cl 16.2%, CCOc1ccc(CCNC(=O)CN2C(=O)COc3ccc(S(=O)(=O)N4CCCC4)cc32)cc1 -20.4%, Cc1ccc(NC(=O)CCC(=O)N2Cc3ccccc3Oc3ncccc32)c(C)c1 -15.2%, Cc1ccc(C(C)C)c(OCC(O)CN2CCN(c3ccccc3F)CC2)c1 (stereo not drawn) -15.2%, Cc1cccc(NC(=O)CSc2nc(-c3ccccc3)cc(=O)[nH]2)c1C 12.5%, COc1ccc(Cl)cc1S(=O)(=O)NCc1ccc2c(c1)CCN2C(=O)c1cccc(C)c1 -15.2%, COc1ccc(-n2nnnc2C2CCN(S(=O)(=O)c3ccc(NC(C)=O)cc3)CC2)cc1 27.4%, Cc1cccc(-c2nc(C)c(CCNC(=O)C(=O)Nc3ccccc3C#N)s2)c1 45.5%, CCn1c(=N)c(C(=O)NCc2ccccc2)cc2c(=O)n3cccc(C)c3nc21 15.6%, Cc1ccc(Cn2ccnc2SCC(=O)NCc2ccccc2Cl)cc1 -11.3%, CCn1c(C(=O)N2CCC(C(=O)NCCc3ccc(C)cc3)CC2)cc2sccc21 -9.5%, N#Cc1c(C(F)(F)F)cc(-c2ccc(F)cc2)nc1SCC(=O)Nc1ccccc1 -1.72%, Cc1ccccc1NC(=O)CSc1nc2ccccc2c2nc(CCn3cncc3C)nn12 -16.7%, COc1ccc(NC(=O)CCc2c(C)nn(-c3ccc(N4CCCCC4)nn3)c2C)cc1Cl -10.1%, COCCCNC(=O)c1ccc(-c2nc(CS(=O)(=O)c3ccc(C)cc3)c(C)o2)cc1 7.32%, Cc1oc(-c2ccc(C(=O)NCc3cccc(F)c3)cc2)nc1COc1ccccc1 -9.78%, CCOC(=O)c1ccc(N2C(=O)c3n[nH]c(-c4ccco4)c3C2c2cccc(OC)c2)cc1 (stereo not drawn) -12.9%, COC(=O)c1ccc2c(=O)n(CCCCCC(=O)NCCc3ccc(Cl)cc3)c(=O)[nH]c2c1 -3.07%, COc1ccccc1C(=O)Nc1cccc(C(=O)OCc2cc(=O)n3ccsc3n2)c1 -6.25%, Cc1ccc(S(=O)(=O)N(CC(=O)Nc2ccc(Cl)cc2Cl)c2ccccc2C)cc1 -10.2%, CCOC(=O)C1CCCN(C(=O)c2ccc3c(c2)sc2nc(-c4ccc(CC)cc4)cn23)C1 (stereo not drawn) 3.73%, Cc1ccc(CNC(=O)C(C)n2nc(C)n3c(cc4sccc43)c2=O)cc1 (stereo not drawn) -4%, COc1cccc2c1cc1c(=O)n(CC(=O)N3CCN(c4ccccc4)CC3)nc(C)n12 -11.1%, O=C(CCS(=O)(=O)c1ccc(Br)cc1)Nc1ccc(F)cc1F -5.29%, CCc1ccc(CNc2ccc3c(c2)ncn3C(C)(C)C)cc1 -11.2%, Cc1ccc(-c2nc3ncccn3c2Nc2ccc3c(c2)OCCO3)cc1 -4.23%, Cc1cccc(NS(=O)(=O)c2ccc3c(c2)CC(C)N3C(=O)C2CCC2)c1C (stereo not drawn) 21.2%
